The structures appear in SMILES notation. In all, about 150,000 compounds went through this assay and about 540 (0.36%) showed an effect of 50% or more. This is one part of the list.

The text below walks through data of ChEMBL document CHEMBL4888484, “Replenishing the malaria drug discovery pipeline: Screening and hit evaluation of the MMV Hit Generation Library 1 (HGL1) against asexual blood stage Plasmodium falciparum ,using a nano luciferase reporter read-out” (2022).

The test system of the test is Plasmodium falciparum. The test is described as follows: Primary screen in NF54 nanoGlo assay, in single point, at 2uM, 72h; a lower Z score goes with more inhibition. Type of test: functional, Erythrocyte. As to conditions: timepoint 72 hour.
For orientation: % Inhibition means the drop in the measured response relative to a control, in per cent. For `CC(C)Cc1ccc(CN2CCO[C@H](C(=O)O)C2)s1`, the “% Inhibition” value is recorded as -11% and the Z score was determined as 1.69.

For `Cc1ccc(CNC(=O)NC2CCN(c3nc4cccnc4n(C)c3=O)CC2)cc1`, the “% Inhibition” value is -15% and the Z score was 1.99.

Turning to `COc1cccc(C(=O)N2CCN(c3nc4nonc4nc3N3CCCC3)CC2)c1`, the “% Inhibition” value is -2% and the Z score worked out at 0.27.

With `CCC(=O)N1CC[C@H](Nc2nc(C(C)C)no2)C1`, the “% Inhibition” value was -10% and the Z score was found to be 1.34.

Take `O=C(NCc1cccc(Cl)c1F)NC1CCC1`: the “% Inhibition” value is given as -7% and the Z score is given as 1.35.

With `C[C@@H](CC(=O)Nc1nccs1)n1cccn1`, the “% Inhibition” value is -9% and the Z score stood at 1.68.

For the compound `Cn1nc(C(=O)N2CCN(S(=O)(=O)c3cccc(F)c3)CC2)ccc1=O`, the “% Inhibition” value was -4% and the Z score was 0.62.

Consider `CCOc1cnc(C(=O)NCCc2ccnn2C)cn1`, for which the “% Inhibition” value is -5% and the Z score is 0.61.

As to `O=C(c1ccc(N2CCCC2=O)cc1)N1CC[C@H]2[C@H](CCC(=O)N2Cc2cccnc2)C1`, the “% Inhibition” value came out at 3% and the Z score is on record as -0.41.

`Cc1ccc(-c2nc(CNC(=O)C[C@H]3CNCCO3)[nH]c2-c2ccccn2)cc1`: the “% Inhibition” value worked out at 24% and the Z score is -2.12.

With `CC[C@H](C)NC(=O)CN1CN(c2ccccc2)C2(CCN(C(=O)c3cccc(F)c3)CC2)C1=O`, the “% Inhibition” value is reported as -2% and the Z score amounted to 0.29.

On to `COc1c(NC(=O)NC2CC2C)c(C)nn1C` (stereo not drawn), for which the “% Inhibition” value was -2% and the Z score worked out at 0.26.

Take `CCn1cc(CCN(C)Cc2cccc3[nH]ccc23)cn1`: the “% Inhibition” value is recorded as -7% and the Z score is 1.1.

Regarding `C[C@@H](NC(=O)c1cccc2ccnn12)C(N)=O`, the “% Inhibition” value was -4% and the Z score was determined as 0.5.

`OCCCN1c2ccccc2Nc2nnc(-c3ccccc3)cc21`: the “% Inhibition” value was found to be 36% and the Z score is -4.06.

For `C=CCC(O)(CC=C)[C@H](C)n1cc(Oc2ccccc2)c(=O)c(C(=O)O)c1`, the “% Inhibition” value is listed as 6% and the Z score is -1.15.

Regarding `O=C(Nc1ccc([C@@H](O)[C@H]2COCC(=O)N2CC2CC2)cc1)c1ccc(F)cc1`, the “% Inhibition” value is -16% and the Z score stood at 2.

For `Cc1ncc(C(=O)N(C)Cc2ccc3c(c2)CN(C)C3)c(=O)[nH]1`, the “% Inhibition” value is on record as -12% and the Z score came out at 1.74.

In the case of `O=C(CN1C(=O)COc2ccc(Cl)cc21)NC1CCCCC1`, the “% Inhibition” value is -7% and the Z score is 0.84.

For the compound `CC(C)Cc1nc(CNS(C)(=O)=O)n(Cc2ccccc2Cl)n1`, the “% Inhibition” value was determined as 14% and the Z score is -2.67.

`O=C1[C@@H](Nc2nc(C3CC3)ns2)CCCN1CCO`: the “% Inhibition” value is given as -19% and the Z score is 2.28.

Consider `CC[C@H](NC(=O)NCC(=O)NCC(C)C)c1nc(C)cs1`, for which the “% Inhibition” value was -13% and the Z score worked out at 1.81.

For the compound `CCn1ncc(-c2nc3c([nH]2)CCCNC3=O)c1C`, the “% Inhibition” value is on record as -13% and the Z score was 1.74.

Turning to `Cc1cccc(CC2(NC(=O)N(C)Cc3nc(C)c[nH]3)CC2)c1`, the “% Inhibition” value is -10% and the Z score stood at 1.29.
